Measurements taken from patent US11178870B2 (priority 2017, dated 2021).

How the values were obtained:
[1] = system: Colletotrichum orbiculare
Magnaporthe grisea = format: in vivo; details: class of control value, Table 7
Phytophthora infestans = format: in vivo; details: class of control value, Table 7

Row | Compound | control value, Test H (anthracnose on cucumber) ([1]; 250 ppm sprayed (2.5 ml/pot) before inoculation, assessed 6 to 10 days after inoculation) | Test A control value (blast on rice) (Magnaporthe grisea) | Test F control value (late blight on tomato) (Phytophthora infestans) | Test H control value (anthracnose on cucumber) ([1]; 250 ppm spray, 2.5 ml/pot, investigated 6 to 10 days after inoculation)
1 | CCn1c(-c2c(F)cccc2Br)c(-n2cc(F)cn2)ccc1=O [Compound 360] | H (H shows the control value more than 50%) | – | – | –
2 | CCn1c(-c2ccccc2C(F)(F)F)c(-n2cc(C)cn2)cc(Br)c1=O [Compound 374] | – | L (L shows the control value of 50% or less) | L (L shows the control value of 50% or less) | H (H shows the control value more than 50%)
